Results taken from a collection of fitness landscapes (doi:10.1016/j.celrep.2020.107928).
The full ranking holds about 81,000 sequences; the median of “one-hybrid fitness for binding parS DNA” is about -0.17, and the highest 2% start at about 0.51. Some of the results follow.

B1: Caulobacter ParB omega fusion; a variant is named by its letters at X, in order, B8GW30 (parent)
chain: MESVVVGEPGMSEGRRGLGRGLSALLGEVDAAPAQAPGEQLGGSREAPIEILQRNPDQPRRTFREEDLEDLSNSIREKGVLQPILVRPSPDTAGEYQIVAGERAWRAAQRAGLKTVPIMVRELDDLAVLEIGIIENVQRADLNVLEEALSYKVLMEKFERTQENIAQTIGKSXSHVANXMRLLXLPDEVQSYLVSGELTAXHARAIAAAADPVALAKQIIEGGLSVRETEALARKAPNLSAGKSKGGRPPRVKDTDTQALESDLSSVLGLDVSIDHRGSTGTLTITYATLEQLDDLCNRLTRGI

Variants of: B1
Assay: one-hybrid fitness for binding parS DNA (scaled: cognate 1, non-cognate 0); higher = stronger binding
Settings: with parS DNA site
Summary of the method: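 On M9-minus-histidine containing 0.1 mM IPTG and 5 mM 3-AT, E. coli USO cells with a HIS3 reporter, site 19 bp from the promoter, grew 48 hours at 37°C to select Caulobacter ParB libraries randomised at four specificity codons. Plasmids from before and after were Illumina-sequenced, with three replicate libraries pooled and variants under 10 reads left out. Fitness is the log change in variant-to-wild-type read ratio, rescaled against cognate and non-cognate.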

one-hybrid fitness for binding parS DNA, 0.948:
RLFC

one-hybrid fitness for binding parS DNA, 0.585:
RIVA

one-hybrid fitness for binding parS DNA, 0.77:
RFVG

one-hybrid fitness for binding parS DNA, ≤ 0.2:
NGKS
RCAK
TICT
EALH
HFVC
QIQT
RVWH
HWEG
SQAM
QGHS
PSYG
TVVI
RTYQ
SNKC
LEDR
TIQE
WFTT
MAYM
HTAC
TGYW
RQLL
KHAT
VPAG
HKKM
KALE
GDMR
QEFY
ESCS
DHRL
HYGL
AWWR
LHDR
VRII
QRGQ
KIFC
DFRG
QMPT
AHLL
GNRV
TREG
GCPL
QVGP
TDFC
ALEY
VPWY
LSNW
KMLS
QKSY
EKQN
YIDT
LKTT
IRQL
YDRI
PHTR
DPRS
FYLS
HIPY
WWAG
EAPI
QIEV
VYGG
SRFW
CAVV
CWAG
IQLR
KDCY
AVEL
QLYK
GRHT
RQVE
VSIA
LTGQ
WCLP
QPED
HESP
TVHF
PWCE
DGGG
RIPW
FFAR
VHIR
VYIR
VTVK
MMRL
FHQS
RDKA
PRPS
KYNR
QSVH
FYPI
LIIQ
GKPR
FTAC
PHNM
QRDI
FSQL
TMGG
HLIM
QSFC
LAKE
LRTK
TPKT
QWKA
KISG
VAKS
QWRI
VWYL
SIHK
MRSL
QSTG
AYGG
QYEY
PPRK
CHSS
NKRG
MGAE
TAVK
DHPH
SIRT
PSLM
LHMG
KTDR
QFPL
GLAL
CMNG
VSMR
LAKV
IRLS
TTII
VSEK
PHDR
SLIL
ATSQ
RSFI
WEEG
IRSL
ARHT
VIQG
NKNY
TQRR
VPTG
MATV
MYRT
VTRR
GDRC
PGYA
FCSY
GRTL

one-hybrid fitness for binding parS DNA, 0.952:
RTYT

one-hybrid fitness for binding parS DNA, 0.429:
RKGN
